PubChem BioAssay AID463173 (ICCB-Longwood Screening Facility, Harvard Medical School, 2010)
The campaign covered roughly 52,000 compounds. About 4,300 (8.3%) were called active. No stated cut-off is given here; in the data, active means survival mostly below about 52% (no sharp cut-off); inactive means mostly above about 56%. This is one part of the list.

What follows are compounds tested on DeltatarO mutant (assay: growth inhibition of S. aureus wild type versus tarO mutant, primary screen, teichoic acid synthesis inhibitors, RN4220, OD600 (AID 463173)). Settings: OD600, 18 h, hits give low values, screened at 18.75 µg/mL (by protocol).

Compound | survival
O=C(CSc1ccccn1)Nc1ccc(Cl)cc1 | inactive: 77%
Cc1nc2ccn(Cc3ccco3)c(=O)c2cc1C(=O)Nc1ccc(F)cc1 | inactive: 89%
COc1ccc(NC(=O)Cn2nc(-c3ccccc3)c3cnc4ccc(C)cc4c32)cc1 | inactive: 63%
COc1ccc(-n2c(=O)[nH]c3cc(C(=O)NCCc4ccc(Cl)cc4)ccc3c2=O)cc1OC | inactive: 85%
CCCn1cc(S(=O)(=O)c2cc(C)ccc2C)c(=O)c2cc(F)c(N3CCN(CC)CC3)cc21 | inactive: 80%
CCOC(=O)c1c(S(=O)(=O)NCC(=O)NCc2ccccc2Cl)c(C)n(C)c1C | inactive: 97%
COCCCn1c(=O)c2sccc2n2c(CCCC(=O)NC3CCC(C)CC3)nnc12 (configuration not stated) | inactive: 82%
Cc1cccc(NC(=O)C2CCN(S(=O)(=O)c3ccc4c(c3)CCCN4C(=O)C3CCC3)CC2)c1 | inactive: 71%
Cn1c(COc2ccccc2)n[nH]c1=S | inactive: 99%
Cc1cccc(C)c1-n1ncc(C(=O)N2CCN(c3ncccn3)CC2)c1C1CCN(C(=O)OC(C)(C)C)CC1 | inactive: 95%
COc1ccc(CNC(=O)C2CCN(S(=O)(=O)c3ccc4c(c3)CCCN4C(C)=O)CC2)cc1 | inactive: 78%
CCc1ccccc1NC(=O)c1sc(-n2nc(C)c(Cc3ccccc3)c2C)nc1C | inactive: 92%
Cc1ccc(C)c(CSc2nnc3[nH]c(=O)cc(-c4ccccc4)n23)c1 | inactive: 68%
Cc1ccc(CNC(=O)c2cc3ccc4cccnc4c3[nH]2)cc1 | active: 32%
COc1ccc(-c2noc(-c3ccc(NC4CCCC4)c([N+](=O)[O-])c3)n2)cc1OC | inactive: 55%
COc1cc(Cl)c(C)cc1NC(c1ccccc1)c1nnc(-c2ccccc2Cl)o1 (configuration not stated) | inactive: 69%
CC(=O)Nc1ccc2nc(NC(=O)CS(=O)(=O)c3ccc(C)cc3)sc2c1 | inactive: 87%
CCC(C)n1c(=N)c(C(=O)NC2CCCCC2)cc2c(=O)n3ccccc3nc21 (configuration not stated) | inactive: 76%
COc1ccc(C2=Nc3ccc(OC(F)(F)F)cc3NC(c3cccnc3)=N2)cc1 | inactive: 67%

Compound | survival
O=S(=O)(NCc1ccc2c(c1)OCO2)c1cccc2nsnc12 | inactive: 84%
COc1ccc(C(=O)N(Cc2ccc(N(C)C)cc2)CC2CCCO2)cc1 (configuration not stated) | inactive: 63%
COc1cc(NC(=O)CSc2nc(-c3ccc(C(C)C)cc3)no2)cc(OC)c1 | inactive: 91%
COc1ccc(NC(=O)CSc2cn(CCNC(=O)c3c(F)cccc3F)c3ccccc23)cc1 | inactive: 76%
O=c1[nH]cc(COCC(F)(F)C(F)F)c(=O)[nH]1 | inactive: 74%
CCN1CCN(Cc2c(O)ccc3c(=O)c(Oc4ccccc4C(C)C)c(C(F)(F)F)oc23)CC1 | active: 51%
O=C(N1CCCC1)N1CCC(c2ccc3c(c2)OCO3)CC1 | inactive: 96%
CCCN1CCN(CCCNC(=O)Cn2nc(C)n3c(cc4c(OC)cccc43)c2=O)CC1 | inactive: 104%
Cc1ccc2c(c1)N(C(=O)N1CCC(C(=O)NCCc3ccccc3)CC1)CC(C)O2 (configuration not stated) | inactive: 82%
CSc1nnc(-c2ccc(S(=O)(=O)N3CCCC3)cc2)n1C | inactive: 91%
Cc1ccc2c(=O)cc(C(=O)Nc3sc4c(c3C(=O)NCC3CCCO3)CCCC4)oc2c1C (configuration not stated) | inactive: 85%
O=C(c1cccc(Cl)c1)N1c2ncnn2C2(CCCCC2)[C@@H]2CCCC[C@@H]21 | inactive: 80%
O=C(Nc1nc(-c2ccc3c(c2)CCN3C(=O)C2CCCCC2)cs1)c1ccco1 | inactive: 58%
COc1cccc(Cn2c(SCc3ccc(C(=O)N4CCCCC4)cc3)nc3ccncc32)c1 | inactive: 74%
O=C(Nc1nc2n(n1)C(c1ccccc1)C=C(c1ccc(Cl)cc1)N2)c1ccco1 (configuration not stated) | inactive: 42%
Cc1cc(Cl)ccc1NC(=O)CN1C(=O)COc2ccc(S(=O)(=O)Nc3ccccc3)cc21 | inactive: 94%
COc1ccc(N(CCC#N)S(=O)(=O)c2ccc(Cl)cc2)cc1 | inactive: 89%
CCOC(=O)C1CCCN(C(=O)c2ccc3c(c2)sc2nc(-c4ccc(C)cc4C)cn23)C1 (configuration not stated) | inactive: 47%
COc1ccc(CCNc2nc(C)cc(C)n2)cc1OC | inactive: 85%

Compound | survival
COc1ccc(C)cc1NC(=O)C(Cc1ccccc1)NS(=O)(=O)c1ccc(Br)s1 (configuration not stated) | inactive: 131%
O=C(COc1ccc(F)cc1)Nc1nnc(SCc2cc(=O)n3ccccc3n2)s1 | inactive: 83%
CCOc1ccc(-c2nonc2NC(=O)c2oc3cc(C)ccc3c2C)cc1OCC | inactive: 87%
COc1ccc(N2Cc3cccc(C(=O)Nc4ccc(Cl)cc4)c3C2=O)cc1 | inactive: 69%
Cc1nn(C)c2c1c(-c1ccccc1)cc(=O)n2Cc1ccc(F)cc1 | inactive: 122%
COc1ccc(-n2cc(-c3ccc4c(c3)OCO4)n(CC(=O)Nc3cc(Cl)ccc3C)c2=O)cc1 | inactive: 73%
COc1ccc(-n2nc3ccc(NC(=O)c4cccc(OCCC(C)C)c4)cc3n2)cc1 | inactive: 121%
O=C1C(c2ccccc2)NC(=S)N1C1CCCCC1 (configuration not stated) | inactive: 79%
CCc1c(C)sc2c1CCN(Cc1ccccc1C#N)C2c1ccccc1 (configuration not stated) | inactive: 99%
CCOc1ccc(CNC(=O)C2CCN(c3nc4ccccc4nc3C(F)(F)F)CC2)cc1OC | inactive: 98%
CCCC(=O)Nc1c(C)nn(C(=O)CCC)c1C | inactive: 73%
CC1CCN(c2oc(-c3cccs3)nc2S(=O)(=O)c2ccccc2)CC1 | active: 35%
CCOC(=O)c1cnc2c(ccc3ccccc32)c1Nc1cccc(Cl)c1 | active: 14%
COc1ccc(CCNC(=O)c2cnc3sc(N4CCOCC4)nn3c2=O)cc1 | inactive: 71%
O=c1[nH]c2cc3[nH]c(=O)c(=O)c3cc2c1=O | inactive: 89%
CCCS(=O)(=O)N1CCC(n2c(C)nc3cccnc32)CC1 | inactive: 87%
CCN(CC)S(=O)(=O)c1ccc2c(c1)N(CC(=O)NCCCN1CCN(c3ccc(OC)cc3)CC1)C(=O)CO2 | inactive: 88%
CC1=C(C(=O)OC2CCCC2)C(c2ccc(C)o2)C2=C(CCCC2=O)N1 (configuration not stated) | inactive: 98%
Cc1ccc2oc(C(=O)Nc3ccc(S(=O)(=O)N4CCCCC4C)cc3)cc(=O)c2c1 (configuration not stated) | inactive: 73%
